Data taken from PubChem BioAssay AID686978 (National Center for Advancing Translational Sciences (NCATS), 2013).
The campaign covered roughly 420,000 compounds. About 64,000 (15%) were called active. The inconclusive results got no clear call from the source; some entries with a clear call stand among them for comparison. Calls come from the whole dose curve; as a rule, active = well fitted inhibition curve with a large enough effect; inconclusive = small, poorly fitted or top-dose-only effect; inactive = flat fitted curve, though single readings scatter. Potencies of inconclusive entries are left out as doubtful fits.

assay: qHTS for Inhibitors of human tyrosyl-DNA phosphodiesterase 1 (TDP1): qHTS in cells in absence of CPT; settings: DT40 Tdp1-/- hTDP1 cells, no CPT, ATP luminescence, 48 h; activity change, negative = growth inhibition: at 46.2 µM (top of the series) unless noted; note: nearly all actives have a fitted effect of over 55% in size
In short: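 Chicken DT40 Tdp1-/- cells stably complemented with human TDP1 were seeded at 400 cells/well with DMSO in place of 20 nM camptothecin. After compound pinning, cells grew at least 48 hr at 37 °C; viability read by CellTiter-Glo luminescence.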
% is set by controls: 0 for no effect and ±100 for the full control effect; potency is the fitted concentration of half-maximal effect; tags give direction and shape of the fitted curve.

Row | Structure (SMILES) | activity change, negative = growth inhibition | Potency
1 | COc1ccc(C2=NOC(Cn3nc(-c4ccccc4)cc3C(=O)NCc3cccc(C(F)(F)F)c3)C2)cc1 (centres undefined) | inactive: -28.4% | 
2 | COc1ccccc1NC(=O)CSc1nnnn1-c1ccc(C)cc1 |  | inconclusive [inhibitor, single point]
3 | CCCCc1c(C)nc2ccccc2c1SCCC#N |  | inconclusive [inhibitor, partial curve]
4 | CC(C)[C@H](NC(=O)OCc1ccccc1)C(=O)OCC(=O)NC1(C#N)CCCC1 | inactive: -5.43% | 
5 | CCOC(=O)CCNC(C)C1COc2ccccc2O1 (centres undefined) | inactive: -17.4% | 
6 | COc1ccc(Cn2c(CCC(=O)Nc3ccc(C)cc3C)nc3cccnc32)cc1 |  | inconclusive [inhibitor, single point]
7 | Cc1ccc(-n2nc(C)c3c(C(=O)OCC(=O)N(C)C4CCS(=O)(=O)C4)cc(-c4ccccc4)nc32)cc1 (centres undefined) |  | inconclusive [inhibitor, single point]
8 | COc1ccc2[nH]c(C)c(CCNC(=S)Nc3cc(C)ccc3C)c2c1 |  | active: 9.2 µM
9 | CC1CN(C2CCN(C(=O)COc3ccc(Cl)cc3)CC2)CC(C)O1 (centres undefined) |  | inconclusive [inhibitor, single point]
10 | O=C(Nc1ncc([N+](=O)[O-])s1)c1ccccc1Br |  | active: 18.4 µM
11 | CCCCOc1cc(C[C@@H]2CNC(=O)N2)ccc1OC | inactive: 1.68% | 
12 | Cc1cccc(CSc2nc(=O)c3c(n2C)NC(=O)CC3c2cc(F)cc(F)c2)c1 (centres undefined) |  | active: 6.51 µM
13 | C=CCOc1cccc(/C=N/NC(=O)CN(c2cc(Cl)ccc2OC)S(=O)(=O)c2ccc(C)c([N+](=O)[O-])c2)c1 |  | active: 16.4 µM
14 | Cc1ccc(N2C(=O)N(CC(=O)N3CCCc4ccccc43)C(=O)C2C)cc1 (centres undefined) |  | inconclusive [inhibitor, single point]
15 | COc1cccc(CNC(=O)c2cccc(-n3c(C)nc4cccnc43)c2C)c1 |  | inconclusive [inhibitor, single point]
16 | O=C1CCCCCCC(=O)[C@H](O)C[C@H](c2ccccc2)O1 | inactive: -20.4% | 
17 | CC(C)OCCCNC(=O)c1ccc(Cn2c(=O)c3cccn3c3cccnc32)cc1 | inactive: -7.36% | 
18 | CS(=O)(=O)c1ccc(N)c(SSc2cc(S(C)(=O)=O)ccc2N)c1 |  | inconclusive [inhibitor, single point]
19 | NS(=O)(=O)c1ccc(NCc2cc(Cl)ccc2OCc2ccc(F)cc2)cc1 |  | inconclusive [inhibitor, single point]
20 | COC(=O)c1c(NC(=O)c2nc3nc(C)cc(C(F)F)n3n2)sc2c1CCC2 |  | active: 16.4 µM
21 | O=C(CN1CCCC1)Nc1ccccc1Sc1ccc(Cl)cc1 |  | inconclusive [inhibitor, single point]
22 | COc1ccc(OC)c(C(=O)COC(=O)c2ccccc2O)c1 | inactive: -18.3% | 
23 | Cc1cnc(NC(=O)NCC2CCCC(CNC(=O)Nc3ncc(C)s3)C2)s1 (centres undefined) |  | inconclusive [inhibitor, single point]
24 | O=c1oc2ccccc2c(N2CCCCC2)c1CN1CCCC1 | inactive: -8.82% | 
25 | Cn1c(=O)c2c(nc(N3CCNCC3)n2Cc2ccccc2Cl)n(C)c1=O | inactive: -24.1% | 

Row | Structure (SMILES) | activity change, negative = growth inhibition | Potency
26 | O=C(O)C(c1cccs1)C1(O)CCCCC1 (centres undefined) | inactive: -1.75% | 
27 | CCOC(=O)C1CCCN(C(=O)c2ccc(C)c(S(=O)(=O)N3CCCCC3)c2)C1 (centres undefined) |  | inconclusive [inhibitor, full curve]
28 | Cc1nc(SCC(=O)Nc2c(C)n(C)n(-c3ccccc3)c2=O)c2cnn(-c3ccccc3)c2n1 |  | inconclusive [inhibitor, single point]
29 | O=C(CCNc1ccc(F)c(Cl)c1)c1ccco1 |  | active: 6.51 µM
30 | O=C(c1cccs1)N(CCN1CCCCC1)CC1CCCN(C2CCCC2)C1 (centres undefined) | inactive: -4.41% | 
31 | O=S(=O)(c1ccc2c(c1)OCCO2)N1CCC(c2nc3ccc(Cl)cc3[nH]2)CC1 |  | active: 11.6 µM
32 | CC1CN(Cc2ccc(C#N)cc2Cl)CC(C)O1 (centres undefined) | inactive: -23.6% | 
33 | Cc1ccsc1CN(C(=O)COc1ccc(Cl)cc1)C1CCS(=O)(=O)C1 (centres undefined) | inactive: -28.2% | 
34 | O=C(CCn1c(=O)c2sccc2n(CC(=O)Nc2ccccc2)c1=O)NCc1ccccc1Cl |  | inconclusive [inhibitor, single point]
35 | Cc1ccc(NC(=O)c2sccc2-n2cccc2)c(C)c1 |  | inconclusive [inhibitor, single point]
36 | O=C(Oc1cccc2cccnc12)c1cccs1 |  | active: 0.82 µM
37 | Cc1ccc(S(=O)(=O)N/N=C/c2cccc(OC3CSC3)c2)cc1 |  | inconclusive [inhibitor, single point]
38 | CCC(=O)N(c1nnc(SCC(=O)Nc2sccc2C(N)=O)s1)C1CC1 |  | inconclusive [inhibitor, single point]
39 | O=C1N2CN(C(c3ccccc3)c3ccccc3)CN=C2SC1(CO)CO |  | inconclusive [inhibitor, single point]
40 | COc1cccc(CNCc2cccn2-c2nnc(N3CCN(c4ccccc4)CC3)s2)c1 |  | inconclusive [inhibitor, single point]
41 | CCn1c(SCC(=O)NCc2ccco2)nc2c1c(=O)n(C)c(=O)n2C | inactive: -0.934% | 
42 | COCCCNCc1cc(C)n(-c2cc(S(=O)(=O)N3CCOCC3)ccc2N2CCCC2)c1C |  | inconclusive [inhibitor, single point]
43 | COc1ccc(-c2[nH]ncc2C(=O)NCc2cccc(OC)c2)cc1 | inactive: -25.6% | 
44 | COC(=O)c1ccccc1-c1cc(C)cc2c1OC(CNC(=O)c1cnc(C)cn1)C2 (centres undefined) |  | active: 18.4 µM
45 | O=C(Nc1ccccc1)c1sc(N2CCOCC2)nc1-c1ccccc1 |  | inconclusive [inhibitor, partial curve, poor fit]
46 | CCOc1ccc(NCc2cccn2-c2nnc(N3CCC(C(=O)NCCCN4C(C)CCCC4C)CC3)s2)cc1 (centres undefined) |  | inconclusive [inhibitor, single point]
47 | CCn1c(=O)cc(SCC(=O)NCc2ccc(Cl)cc2)c2ccccc21 |  | active: 20.6 µM
48 | CCN(CC)CCCC(C)Nc1nccc2c(Cl)cccc12 (centres undefined) |  | inconclusive [inhibitor, single point]
49 | COC(=O)c1sc2nc(-c3ccco3)ccc2c1N |  | inconclusive [inhibitor, partial curve]
50 | CC(=O)C1CN(S(=O)(=O)c2ccc(C)cc2)C(c2ccccc2)CC1C (centres undefined) |  | inconclusive [inhibitor, single point]

Row | Structure (SMILES) | activity change, negative = growth inhibition | Potency
51 | COc1ccc(CCNC(=O)c2cc(=O)c3cc(C)ccc3o2)cc1 |  | active: 13 µM
52 | COc1ccc(-c2nc(CS(=O)(=O)CC(=O)NCCCN3CCOCC3)c(C)o2)cc1 | inactive: 18.5% | 
53 | CC12CC3(C)CC(C)(C1)CC(C(=O)NCC(=O)O)(C2)C3 | inactive: -5.67% | 
54 | COc1ccccc1CCC(=O)Nc1nc2ccccc2[nH]1 |  | active: 4.11 µM
55 | COCCCn1cnc2c(c1=O)c1nc3ccccc3nc1n2-c1ccc(C)cc1 |  | inconclusive [inhibitor, single point]
56 | CCC(c1nnnn1C1CCCC1)N1CCN(c2cccc(OC)c2)CC1 (centres undefined) |  | active: 16.4 µM
57 | COc1ccc(OCCCC(=O)Nc2nnc(C3CCCO3)s2)cc1 (centres undefined) |  | inconclusive [inhibitor, partial curve, poor fit]
58 | CCC1S/C(=N\S(=O)(=O)c2cccs2)N(C2CCCCC2)C1=O (centres undefined) | inconclusive: -31.7% [inhibitor] | 
59 | CN(C)CCN1CCN(C(c2ccnc3ccccc23)c2nnnn2-c2ccc3c(c2)OCCO3)CC1 (centres undefined) |  | active: 16.4 µM
60 | O=C(Nc1nc(-c2ccco2)c(-c2ccco2)s1)c1ccco1 |  | inconclusive [inhibitor, single point]
61 | CCOCCn1c(-c2ccc(OC)cc2)nc2ccccc21 |  | inconclusive [inhibitor, partial curve]
62 | Cc1ccc(CNC(=O)CSc2nnc(C)c3c(C)n(-c4ccccc4)nc23)cc1 |  | inconclusive [inhibitor, single point]
63 | O=C(NC1CCCC1)c1cn(C2CCN(Cc3cccc4cccnc34)CC2)nn1 | inactive: -13.7% | 
64 | CCCS(=O)(=O)NC(=O)C1(C)CCCN(C(=O)c2ccccc2Br)C1 (centres undefined) | inactive: -12.8% | 
65 | CCN(CC)S(=O)(=O)c1ccc(N2Cc3ccccc3C2=N)cc1 |  | inconclusive [inhibitor, single point]
66 | Cc1cccnc1C(NC(=O)C1CCN(CCCc2ccccc2)CC1)c1ccc(F)cc1 (centres undefined) |  | active: 23.1 µM
67 | O=[N+]([O-])c1ccc(OCCCCN2CCc3ccccc3C2)cc1 |  | inconclusive [inhibitor, single point]
68 | CNC(=S)N1CCC(NC(=O)C(Cc2ccc(F)cc2)NC(C)=O)CC1 (centres undefined) | inactive: -8.04% | 
69 | CCc1cccc2c(C=C(C#N)C#N)cn(CC(=O)N3CCCCC3)c12 |  | inconclusive [inhibitor, full curve, poor fit]
70 | CC1CCN(S(=O)(=O)c2ccc3c(ccc(=O)n3CC(=O)NCc3ccccc3Cl)c2)CC1 |  | inconclusive [inhibitor, single point]
71 | CN(Cc1ccccc1)S(=O)(=O)c1ccc(Cl)c(C(=O)NCCCN2CCOCC2)c1 |  | inconclusive [inhibitor, single point]
72 | Cn1c2c(c(=O)c3ccccc31)CCCC2 | inactive: -18.4% | 
73 | COC(=O)/C(C)=C/CC12OC(C)(C)C3CC(C=C4C(=O)c5cc6c(c(CCC(C)(C)Cl)c5OC431)OC1(C)CCC(=C(C)C)C6C1)C2=O (centres undefined) | inactive: -8.29% | 
74 | Cn1cccc1C(=O)N1CCC2(CC1)CCN(c1ncccn1)CC2 |  | inconclusive [inhibitor, partial curve]
